Data on 58 compounds can be found in PubChem BioAssay AID360 (National Center for Advancing Translational Sciences (NCATS), 2006).

Structures are written as SMILES. In all, about 48,000 compounds went through this assay and about 550 (1.1%) were called active. About 4% were inconclusive and are not listed. Cut-off read from the data, not from the text of the source: active = potency below about 15 µM; inconclusive = mostly about 16 µM to 33 µM; inactive = weaker than that. The list shows a part of the results.
Potency is the fitted concentration of half-maximal effect.

Chain of UniProt P04062 (P04062 whole entry, looked up): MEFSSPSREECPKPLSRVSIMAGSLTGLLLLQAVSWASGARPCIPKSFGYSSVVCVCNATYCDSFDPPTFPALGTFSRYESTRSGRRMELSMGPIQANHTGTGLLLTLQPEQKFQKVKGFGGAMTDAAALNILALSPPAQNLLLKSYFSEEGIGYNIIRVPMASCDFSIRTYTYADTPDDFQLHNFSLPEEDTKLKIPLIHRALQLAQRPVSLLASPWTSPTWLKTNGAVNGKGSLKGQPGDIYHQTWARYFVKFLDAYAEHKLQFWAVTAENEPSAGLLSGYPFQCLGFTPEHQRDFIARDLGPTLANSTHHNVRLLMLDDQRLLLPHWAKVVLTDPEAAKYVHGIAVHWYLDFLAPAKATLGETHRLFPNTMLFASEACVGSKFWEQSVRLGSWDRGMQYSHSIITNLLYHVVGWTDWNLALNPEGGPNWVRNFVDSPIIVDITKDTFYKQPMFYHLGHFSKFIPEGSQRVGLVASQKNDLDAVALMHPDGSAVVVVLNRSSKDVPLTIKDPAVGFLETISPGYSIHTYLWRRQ

The experiment concerns the target Lysosomal acid glucosylceramidase (Homo sapiens) (UniProt P04062). Put plainly: Glucocerebrosidase.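 Note: the screen sought inhibitors.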 The conditions noted are these: purified enzyme, resorufin glucoside fluorescence (screen aimed at inhibitors), 20 min. The method, boiled down:
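Compounds titrated against 0.2 nM normal enzyme, 30 uM resorufin beta-D-glucopyranoside substrate, citrate/phosphate buffer with taurocholate and tween-20, pH 5.9. Reaction ran 20 min at room temperature; fluorescence (Ex 548/Em 600) gave AC50.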
Take `CCn1cnc2sc(C(=O)O)c(C)c2c1=O`: the Potency was inactive: > 76.9 µM.

In the case of `COc1ccc(OC)c(CC(NC(C)=O)C(=O)NC2CCN(c3nc(C)cc(C)c3C#N)CC2)c1` (stereo not drawn), the Potency was inactive: > 76.9 µM.

Turning to `COc1ccc(CNC(=O)CN(C(=O)c2ccc(CN3CCOCC3)o2)C2CCCC2)cc1`, the Potency was inactive: > 76.9 µM.

Consider `Cc1cccc(OCC(=O)N(Cc2cccs2)C2CCS(=O)(=O)C2)c1` (stereo not drawn), for which the Potency is inactive: > 76.9 µM.

As for `O=C(c1ccc(COCC(F)(F)F)o1)N1CCCCCC1`, the Potency is inactive: > 76.9 µM.

For `CS(=O)(=O)n1nc(C(=O)N2CCOCC2)nc1N`, the Potency is inactive: > 76.9 µM.

As for `O=C(Cc1ccccc1)Nc1nonc1NC(=O)c1ccccc1`, the Potency was inactive: > 76.9 µM.

For the compound `COC(=O)c1cc(-c2ccc(OC)c(OC)c2)n[nH]1`, the Potency is inactive: > 76.9 µM.

Take `Cc1ccc(-n2c(N)c(C(N)=O)sc2=S)c(C)c1`: the Potency was inactive: > 76.9 µM.

`Cc1noc(C)c1COC(=O)c1ccc2c(c1)OCO2`: the Potency was inactive: > 76.9 µM.

In the case of `CCC(C)NC(=O)Cn1cccc1C(=O)c1ccccc1` (stereo not drawn), the Potency was inactive: > 76.9 µM.

For the compound `O=C(CCNS(=O)(=O)c1cccc2nsnc12)NC1CCCc2ccccc21` (stereo not drawn), the Potency was inactive: > 76.9 µM.

For the compound `C/C=C/Cn1c(N2CCCCCC2)nc2c1c(=O)[nH]c(=O)n2C`, the Potency is inactive: > 76.9 µM.

With `CCOC(=O)Cc1csc(NC(=O)c2ccc(C)o2)n1`, the Potency is inactive: > 76.9 µM.

For the compound `O=S(=O)(NCc1ccccc1)c1cccc2nonc12`, the Potency is inactive: > 76.9 µM.

For `CCOC(=O)C1CCN(CC(=O)N2C(C)CCCC2C)CC1` (stereo not drawn), the Potency is inactive: > 76.9 µM.

`N#Cc1nc(N)nc(N(c2ccccc2)c2ccccc2)n1`: the Potency was inactive: > 76.9 µM.

As for `CCOC(=O)c1cc(C)n(-c2c(C)n(C)n(-c3ccccc3)c2=O)c1C`, the Potency was inactive: > 76.9 µM.

Take `CCOCCCNC(=O)C1CCN(S(=O)(=O)c2c(C)noc2/C=C\c2ccc(OC)cc2)CC1`: the Potency was inactive: > 76.9 µM.

As to `Cc1cc(NC(=O)c2sccc2C)n(-c2cccc(Cl)c2)n1`, the Potency was inactive: > 76.9 µM.

With `Cc1cc(C)n(CC(O)COCc2ccccc2)n1` (stereo not drawn), the Potency is inactive: > 76.9 µM.

In the case of `CC(C)Cn1c(=O)c2c(nc3n2CCCN3CCc2ccccc2)n(C)c1=O`, the Potency is inactive: > 15.4 µM.

Take `CCOC(=O)N1CCC(NC(=O)CCc2cn(C)c3ccccc23)CC1`: the Potency was inactive: > 76.9 µM.

Consider `C=CCn1c(N)c(C(=O)NCc2cccnc2)sc1=S`, for which the Potency was inactive: > 76.9 µM.

As for `CCCCCn1c(S(=O)(=O)O)nc2ccccc21`, the Potency was inactive: > 76.9 µM.

Take `Cc1oc(-c2ccc3c(c2)OCCO3)cc1C(=O)O`: the Potency was inactive: > 76.9 µM.

Turning to `COC(=O)C1=C(N)Oc2cc(C)n(CC3CCCO3)c(=O)c2C1c1ccccc1OC` (stereo not drawn), the Potency is inactive: > 76.9 µM.

Regarding `O=C(NC1CCCCC1)C(c1ccco1)N(Cc1cccs1)C(=O)Cn1nnc2ccccc21` (stereo not drawn), the Potency is inactive: > 76.9 µM.

Take `Cc1ccc(CNC(=O)CCNS(=O)(=O)c2ccc3c(c2)c(=O)n(C)c(=O)n3C)cc1`: the Potency is inactive: > 76.9 µM.

As to `Cn1c(C(=O)NCC2CCCO2)cc2c(=O)n3ccccc3nc21` (stereo not drawn), the Potency is inactive: > 76.9 µM.

`O=C(CNC(=O)c1ccc(Cl)cc1)NCCCn1ccnc1`: the Potency was inactive: > 76.9 µM.

As for `CCCn1nnnc1SCC(=O)c1ccc2c(c1)OCCO2`, the Potency is inactive: > 76.9 µM.

Take `CCN(C(=O)CSc1nnc(Cn2nnc3ccccc32)o1)c1nc(-c2ccccc2)cs1`: the Potency was inactive: > 76.9 µM.

Regarding `CN1CCN(C2=C(Cl)C(=O)N(CCc3ccccc3)C2=O)CC1`, the Potency entry was “inactive”.

For `Cc1oc2c(CN3CCCC3)c(O)ccc2c(=O)c1-c1ccccc1`, the Potency is inactive: > 76.9 µM.

Turning to `CC(=O)NC1Sc2ccccc2N=C1c1ccccc1` (stereo not drawn), the Potency was inactive: > 76.9 µM.

On to `N#Cc1ccccc1NC(=O)CSc1nccn1CCc1ccccc1`, for which the Potency is inactive: > 76.9 µM.

Turning to `CCCOC(=O)CSc1nnc(-c2ccc(Cl)cc2Cl)o1`, the Potency is inactive: > 76.9 µM.

For the compound `O=C(Nc1ccccc1C(=O)N1CCN(c2ccccc2)CC1)c1ccco1`, the Potency was inactive: > 76.9 µM.

For `CCOC(=O)Cc1csc(NC(=O)C2C3C=CC(C3)C2C(=O)O)n1` (stereo not drawn), the Potency was inactive: > 76.9 µM.

Take `Cc1ccc(S(=O)(=O)Cn2nnnc2CN(Cc2ccco2)Cc2cccs2)cc1`: the Potency was inactive: > 76.9 µM.

Regarding `COC(=O)C1C(=O)C2=C(CC1C)NC(=O)CC2c1ccccc1` (stereo not drawn), the Potency was inactive: > 76.9 µM.

On to `COc1ccc(CCNC(=O)CC2Nc3ccccc3NC2=O)cc1OC` (stereo not drawn), for which the Potency is inactive: > 76.9 µM.

For `N#Cc1ccccc1CSc1ccccn1`, the Potency was inactive: > 76.9 µM.

As to `CCOC(=O)N1CCN(C(=O)C2CCC(=O)N2C(C)C)CC1` (stereo not drawn), the Potency was inactive: > 76.9 µM.

Regarding `COc1ccc(Cn2nnnc2C(c2cc3cccc(C)c3[nH]c2=O)N2CCOCC2)cc1` (stereo not drawn), the Potency was inactive: > 76.9 µM.

As for `O=C(COC(=O)CCC(=O)c1ccc(F)cc1)Nc1ccc(N2CCOCC2)cc1`, the Potency was inactive: > 76.9 µM.

For `O=C(O)Cn1cc(C(=O)c2ccco2)c2ccccc21`, the Potency was inactive: > 76.9 µM.

`CN1CCN(c2ccccc2NC(=O)c2cc(Br)ccc2Cl)CC1`: the Potency was inactive: > 76.9 µM.

For `NS(=O)(=O)c1ccc(NC(=O)N[C@@H](Cc2ccccc2)C(=O)O)cc1`, the Potency was inactive: > 76.9 µM.

As for `COc1ccc(OC)c(NC(=O)C2CCN(S(=O)(=O)c3c(C)noc3C)CC2)c1`, the Potency is inactive: > 76.9 µM.

On to `O=C(Nc1ccccn1)c1c(O)c2cccc3c2n(c1=O)CCC3`, for which the Potency was inactive: > 76.9 µM.

Regarding `CC(=O)c1cc(C#N)c(SCC(=O)OC(C)C)nc1C`, the Potency was inactive: > 76.9 µM.

In the case of `CC1(C)CC(=O)C2=C(C1)N(c1ccccc1)C(N)=C(C#N)C2c1cccnc1` (stereo not drawn), the Potency was inactive: > 76.9 µM.

Turning to `CCOCCn1c(CN2CCN(c3ccc(OC)cc3)CC2)nc2c1c(=O)n(C)c(=O)n2C`, the Potency is inactive: > 76.9 µM.

For `O=c1c2ccccc2nc(SCc2nnc(-c3ccccc3)o2)n1-c1ccc(F)cc1F`, the Potency is inactive: > 76.9 µM.

Turning to `Cc1ccc(NC(=O)NC(=O)N(c2ccccc2)S(C)(=O)=O)cc1`, the Potency is inactive: > 76.9 µM.

With `O=C(CCCSc1nc2ccccc2[nH]1)NCc1ccco1`, the Potency is inactive: > 76.9 µM.
